# Reference: the supplement of paper PMC8728848
# The list shows a part of the results.
# B1: Gal 8 (Mus musculus), Q9JL15 (protein)
# chain: MGGSHHHHHHGMASMLSLNNLQNIIYNPIIPYVGTITEQLKPGSLIVIRGHVPKDSERFQVDFQLGNSLKPRADVAFHFNPHFKRSSCIVCNTLTQEKWGWEEITYDMPFRKEKSFEIVFMVLKNKFQVAVNGRHVLLYAHRISPEQIDTVGIYGKVNIHSIGFRFSSASALPHTLGDLQSMETSALGLTQINRENIQKPGKLQLSLPFEARLNASMGPGRTVVIKGEVNTNARSFNVDLVAGKTRDIALHLNPHLNVKAFVRNSFLQDAWGEEERNITCFPFSSGMYFEMIIYCDVREFKVAINGVHSLEYKHRFKDLSSIDTLSVDGDIRLLDVRSW
# What was measured:
# Assay in all cases: glycan array binding signal (z-score within array); higher = stronger binding
# Details in all cases: glycan notation: IUPAC condensed, linker removed; mutation: R82H, R255H
# [1] = molecular target: Fuc(a1-2)Gal(b1-4)GlcNAc(b1-3)Gal(b1-4)GlcNAc(b1-2)Man(a1-3)[Fuc(a1-2)Gal(b1-4)GlcNAc(b1-3)Gal(b1-4)GlcNAc(b1-2)Man(a1-6)]Man(b1-4)GlcNAc(b1-4)GlcNAc
# Method in brief: (§1)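 Negative Z-scores can be read as non-binding. The Z-score is calculated within each array and then averaged across arrays of one protein sequence at different concentrations or buffers and across linkers. Arrays, 3228 in all, were curated from the Consortium for Functional Glycomics database and kept only where the protein sequence was available.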
# [2] = molecular target: Fuc(a1-2)Gal(b1-4)GlcNAc(b1-3)Gal(b1-4)GlcNAc(b1-3)Gal(b1-4)GlcNAc
# Method in brief: as §1
# [3] = molecular target: Fuc(a1-2)Gal(b1-4)GlcNAc(b1-3)GalNAc
# Method in brief: as §1
# [4] = molecular target: Fuc(a1-2)Gal(b1-4)GlcNAc(b1-3)[Fuc(a1-2)Gal(b1-4)GlcNAc(b1-6)]GalNAc
# Method in brief: as §1
# [5] = molecular target: Fuc(a1-2)Gal(b1-4)GlcNAc(b1-3)[Fuc(a1-3)[Gal(b1-4)]GlcNAc(b1-6)]Gal(b1-4)Glc
# Method in brief: as §1
# [6] = molecular target: Fuc(a1-2)Gal(b1-4)GlcNAc(b1-6)GalNAc
# Method in brief: as §1
# [7] = molecular target: Fuc(a1-2)Gal(b1-4)GlcNAc6S
# Method in brief: as §1
# [8] = molecular target: Fuc(a1-2)Gal(b1-4)[Fuc(a1-3)]GlcNAc
# Method in brief: as §1
# [9] = molecular target: Fuc(a1-2)Gal(b1-4)[Fuc(a1-3)]GlcNAc(b1-2)Man(a1-3)[Fuc(a1-2)Gal(b1-4)[Fuc(a1-3)]GlcNAc(b1-2)Man(a1-6)]Man(b1-4)GlcNAc(b1-4)[Fuc(a1-6)]GlcNAc
# Method in brief: as §1
# [10] = molecular target: Fuc(a1-2)Gal(b1-4)[Fuc(a1-3)]GlcNAc(b1-2)[Fuc(a1-2)Gal(b1-4)[Fuc(a1-3)]GlcNAc(b1-4)]Man(a1-3)[Fuc(a1-2)Gal(b1-4)[Fuc(a1-3)]GlcNAc(b1-2)Man(a1-6)]Man(b1-4)GlcNAc(b1-4)GlcNAc
# Method in brief: as §1
# [11] = molecular target: Fuc(a1-2)Gal(b1-4)[Fuc(a1-3)]GlcNAc(b1-3)Gal(b1-4)[Fuc(a1-3)]GlcNAc
# Method in brief: as §1
# [12] = molecular target: Fuc(a1-2)Gal(b1-4)[Fuc(a1-3)]GlcNAc(b1-3)Gal(b1-4)[Fuc(a1-3)]GlcNAc(b1-3)Gal(b1-4)[Fuc(a1-3)]GlcNAc
# Method in brief: as §1
# [13] = molecular target: Fuc(a1-2)Gal(b1-4)[Fuc(a1-3)]GlcNAc(b1-3)GalNAc
# Method in brief: as §1
# [14] = molecular target: Fuc(a1-2)Gal(b1-4)[Fuc(a1-3)]GlcNAc(b1-3)[Neu5Ac(a2-6)Gal(b1-4)GlcNAc(b1-6)]Gal(b1-4)Glc
# Method in brief: as §1
# [15] = molecular target: Fuc(a1-2)Gal3S(b1-4)GlcNAc
# Method in brief: as §1
# [16] = molecular target: Fuc(a1-2)Gal6S(b1-3)GlcNAc
# Method in brief: as §1
# [17] = molecular target: Fuc(a1-2)Gal6S(b1-3)GlcNAc6S
# Method in brief: as §1
# [18] = molecular target: Fuc(a1-2)Gal6S(b1-4)Glc
# Method in brief: as §1
# [19] = molecular target: Fuc(a1-2)Gal6S(b1-4)Glc6S
# Method in brief: as §1
# [20] = molecular target: Fuc(a1-2)[Gal(a1-3)]Gal
# Method in brief: as §1
# [21] = molecular target: Fuc(a1-2)[Gal(a1-3)]Gal(b1-3)GalNAc
# Method in brief: as §1
# [22] = molecular target: Fuc(a1-2)[Gal(a1-3)]Gal(b1-3)GalNAc(b1-3)Gal(a1-4)Gal(b1-4)Glc
# Method in brief: as §1
# [23] = molecular target: Fuc(a1-2)[Gal(a1-3)]Gal(b1-3)GlcNAc
# Method in brief: as §1
# [24] = molecular target: Fuc(a1-2)[Gal(a1-3)]Gal(b1-3)GlcNAc(b1-2)Man(a1-3)[Fuc(a1-2)[Gal(a1-3)]Gal(b1-3)GlcNAc(b1-2)Man(a1-6)]Man(b1-4)GlcNAc(b1-4)GlcNAc
# Method in brief: as §1
# [25] = molecular target: Fuc(a1-2)[Gal(a1-3)]Gal(b1-3)GlcNAc(b1-2)Man(a1-3)[Fuc(a1-2)[Gal(a1-3)]Gal(b1-3)GlcNAc(b1-2)Man(a1-6)]Man(b1-4)GlcNAc(b1-4)[Fuc(a1-6)]GlcNAc
# Method in brief: as §1
# [26] = molecular target: Fuc(a1-2)[Gal(a1-3)]Gal(b1-3)GlcNAc(b1-3)GalNAc
# Method in brief: as §1
# [27] = molecular target: Fuc(a1-2)[Gal(a1-3)]Gal(b1-3)GlcNAc(b1-6)GalNAc
# Method in brief: as §1
# [28] = molecular target: Fuc(a1-2)[Gal(a1-3)]Gal(b1-4)Glc
# Method in brief: as §1
# [29] = molecular target: Fuc(a1-2)[Gal(a1-3)]Gal(b1-4)GlcNAc
# Method in brief: as §1
# [30] = molecular target: Fuc(a1-2)[Gal(a1-3)]Gal(b1-4)GlcNAc(b1-2)Man
# Method in brief: as §1
binder,measurement,setting,value
B1,glycan array binding signal (z-score),[1],-0.178
same,glycan array binding signal (z-score),[2],-0.252
same,glycan array binding signal (z-score),[3],-0.255
same,glycan array binding signal (z-score),[4],-0.218
same,glycan array binding signal (z-score),[5],-0.413
same,glycan array binding signal (z-score),[6],-0.239
same,glycan array binding signal (z-score),[7],-0.243
same,glycan array binding signal (z-score),[8],-0.253
same,glycan array binding signal (z-score),[9],-0.21
same,glycan array binding signal (z-score),[10],-0.169
same,glycan array binding signal (z-score),[11],-0.264
same,glycan array binding signal (z-score),[12],-0.258
same,glycan array binding signal (z-score),[13],-0.219
same,glycan array binding signal (z-score),[14],-0.27
same,glycan array binding signal (z-score),[15],-0.255
same,glycan array binding signal (z-score),[16],-0.207
same,glycan array binding signal (z-score),[17],0.037
same,glycan array binding signal (z-score),[18],0.919
same,glycan array binding signal (z-score),[19],-0.221
same,glycan array binding signal (z-score),[20],-0.252
same,glycan array binding signal (z-score),[21],-0.238
same,glycan array binding signal (z-score),[22],-0.263
same,glycan array binding signal (z-score),[23],3.22
same,glycan array binding signal (z-score),[24],4.77
same,glycan array binding signal (z-score),[25],-0.114
same,glycan array binding signal (z-score),[26],-0.176
same,glycan array binding signal (z-score),[27],-0.076
same,glycan array binding signal (z-score),[28],-0.176
same,glycan array binding signal (z-score),[29],-0.237
same,glycan array binding signal (z-score),[30],-0.205
